Measured values as given in patent CN116018351A (SHANGHAI YOUTI JISHENG BIOMEDICAL CO LTD, dated 2023).

T1: CD123-Fc重组蛋白 (human, UniProt P26951 19-305)
T1 construct: also called CD123-Fc蛋白; 人CD123-Fc; not shown: Fc part
T1 sequence: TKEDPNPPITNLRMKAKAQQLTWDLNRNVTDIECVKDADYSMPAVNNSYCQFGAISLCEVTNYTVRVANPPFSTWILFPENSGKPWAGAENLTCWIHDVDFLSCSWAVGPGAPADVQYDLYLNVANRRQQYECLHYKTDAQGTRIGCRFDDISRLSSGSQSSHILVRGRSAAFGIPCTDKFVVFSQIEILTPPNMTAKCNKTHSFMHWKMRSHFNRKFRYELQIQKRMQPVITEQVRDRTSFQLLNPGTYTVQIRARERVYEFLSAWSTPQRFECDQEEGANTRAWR

B1: 抗CD123 scFv-C7 (in a CAR on T cells) (scFv)
scFv: [sequence of about 100 residues not given]GGGGSGGGGSGGGGSQVQLVQSGAEVKKPGASVKVSCKASGYTFTSYGISWVRQAPGQGLEWMGWISAYNGNTNYAQKLQGRVTMTTDTSTSTAYMELRSLRSDDTAVYYCARDPYDDYGGNSRDEEDAFDIWGQGTMVTVSS
notes: Human scFv from phage display; also called 抗-CD123-C7; not shown: rest of the CAR, hinge domain to CD3-zeta domain
B2: 抗CD123 scFv-C35 (in a CAR on T cells) (scFv)
scFv: QSVVTQPPSVSAASGQKVTISCSGSSPNIGNNYVSWYQHLPGTAPKLLIYDNNKRPSGIPDRFSGSKSGTSVTLGITGLQTGDEADYYCGTWDSRLNIWVFGGGTKLTVLGGGGSGGGGSGGGGS[sequence of about 100 residues not given][sequence of about 20 residues not given]
notes: Human scFv from phage display; not shown: rest of the CAR, hinge domain to CD3-zeta domain
B3: 抗CD123 scFv-C25 (in a CAR on T cells) (scFv)
scFv: QSALTQPASVSGPPGQSITISCTGTSSDVGGYNYVSWYQQHPGKAPKLMIYDVSNRPSGVSNRFSGSKSGNTASLTISGLQAEDEADYYCSSYTSSSTWVFGGGTKLTVLGGGGSGGGGSGGGGS[sequence of about 100 residues not given]YYFYSSGDMTDYWGQGTLVTVSS
notes: as for B2
B4: 抗CD123 scFv-C28 (in a CAR on T cells) (scFv)
scFv: QSALTQPASVSGSPGQSITISCTGTSSDVGGYNYVSWYQQHPGKAPKLMIYDVSNRPSGVSNRFSGSKSGNTASLTISGLQAEDEADYYCSSYTSSSNWVFGGGTELTVLGGGGSGGGGSGGGGS[sequence of about 100 residues not given]YYFYSSGDMTDYWGQGTLVTVSS
notes: as for B2

The binders below were run against T1, CD123-Fc重组蛋白 (assay: FACS staining of CAR T cells with CD123-Fc recombinant protein).
B1: binds.
B2: binds.
B3: binds.
B4: binds.
